# Assay results as given in the supplement of paper PMC10300432.
# B1: C5218 (protein)
# chain 1: EVQLLESGGGVVQPGGSLRLSCPASGFTFSSFAMSWVRQAPGKGLEWVAAINGRGITTYYAASVYGRFTISRDNSKNTLFLQMTSLRAEDTAVYYCAKDDSSGYHNYFDYWGQGTLVTVSS
# chain 2: DIQMTQSPSSLAASVGDRVTISCRASQSISTYLNWYQQKPGKAPKLLIYAASNLQSGVPSRFSASGSGTDFTLTISSLQPEDFATYYCQQGYNTPPLTFGGGTKVEIK
# B2: C5210 (protein)
# chain 1: QVQLVESGGGVVQPGRSLRLSCAASGFTFSKYGMHWIRQAPGKGLEWVASIAFDGSDKYYADSVKGRFNISRDNSKDTLYLQMNSMRAEDTAVYYCAKQLSLYGSVNYYPDYWGQGTLVTVSS
# chain 2: DIQMTQSPSSLSASIGDRVTITCQASQDINNYLNWYQQEPGRAPKLLIYDASNLEGGVPSRFSGGGSGTDFTFTISSLQPEDIATYYCQQYDNLPLTFGGGTKVEI
# B3: C5235 (protein)
# chain 1: EVQLVESGGGLIQPGGSLRISCAASGLLVSRNYMNWVRQAPGKGLEWVSILYPGGSAFYASSVKGRFTISRDDSNNTLFLQMNSLRAEDSAVYYCARDLSTVGGFDIWGQGTVLTVSS
# chain 2: EIVLTQSPGTLSLSPGESATLSCRASQSVSSSYLAWYQQKPGQAPRLLIYAASRRATGIPDRFSGSGSGTDFTLIISRLEPEDFAVYYCQLYDNLYPFGQGTKLEIK
# B4: C5044 (protein)
# chain 1: EVQLVESGGGLVQPGGSLRLSCSASGFTFSNYALHWVRRAPGKGLEYVSGINSDGESTYHADSVKGRFTISRDNSKNTLYLQMSRLRAEDTAVYYCVREGGNYFVLGDFDVWGQGTMVTVSS
# chain 2: SYELTQPPSVSVAPGKTARITCGGNSIGSKSVHWYQQKPGQAPLLVIYYDSDRPSGIPERFSGSNSGNTATLTISRVEAGDEADYYCQVWDTSCLFGGGTKLTVL
# B5: C5216 (protein)
# chain 1: QVQLVESGGGVVQPGRSLRLSCAASGFTFSDYGMHWVRQSPGKGLEWVAVIGDDGLYKWYADSVKGRFTISRDNSKNTLYLQMNGPRAEDTAIYFCARDWGSRVTYFDSWGQGTLVTVS
# chain 2: DIQMTQSPSSLSASVGDRVTISCRASQSIGSYLSWYQQKPGKAPNLLIYDASNLQSGVPSRFSGSGSGTEFTLTVSSLQPEDFATYYCQQSYSTPPWTFGQGTKVEIK
# B6: C5237 (protein)
# chain 1: QVQLVESGGGVVQPGRSLRLSCAVSGFSLSRYGMHWVRQAPGKGLEWVAVTSYDGSNKYYADSVKGRFTISSDNSKNTLYLQMNSLRDEDTAVYYCAKKGGGPYCGGDCYAGYLDYWGQGTLVTVSS
# chain 2: DIQLTQSPSSLSASVGDRVTITCRASQDISSALAWYQQRPGKAPKLLIYDASSLESGVPSRFSGSGSGTDFSLTISSLQPEDFASYYCQQFSSSPSITFGQGTRLEIK
# B7: C5207 (protein)
# chain 1: QVQLVESGGGVVQPGRSLRLSCAAFGFTFTSSAMHWVRQAPGKGLEWVAVISHDGTNKYYGDSVRGRFTISRDNSKNTLSLQMDSLRAEDTAVYHCARWGRHPIYDSSGYPTHYYYGMDVWGPGTTVTVSS
# chain 2: EIVLTQSPGTLSLSPGERATLSCRASQSVSGSYLAWYQQKVGQAPRLLIYGASSRATGIPDRFSGSGSGTDFTLTINRLEPEDFAVYYCQHHDTSPPLYTFGQGTKLEIK
# B8: C5206 (protein)
# chain 1: QVQLVESGGGVVQPGRSLRLSCAASGFTFSSSAMHWVRQTPGRGPEWVAVISHEGSQKYYVDSVKGRFTISRDNAKNTLYLQMNSLRAEDTAVYYCARWGRHPIYDSSGYPSYYYYGMDVWGQGTTVTVSS
# chain 2: DIQMTQSPVSLPVSVGDRVTITCRASQDISNYLNWYQQKPGRAPKLLIYDASNLETGVPSRFSGSGSGTDFTFTISSLQPEDIATYYCQQYDDLPYTFGQGTKLDIK
# B9: C5236 (protein)
# chain 1: EVQLVESGGGLVQPGGSLRLSCTGSGFLFSTYWMTWVRQAPGKGLEWVANIKQDGSEKYYVDSVKGRFIISRDNAKNSQYLQMNSLRAEDTGIYYCASALGVLWFGEPSQGTLVTVSS
# chain 2: DIQMTQSPSSLSASVGDRVTITCRASQGISNSLAWYQQKPGKSPYLLIYSASTLESGVPSRFSGSGSGTDFSLTISSLQPEDFATYYCQQYYSIPITFGPGTKVDI
# B10: C5211 (protein)
# chain 1: QVQLVESGGGVVKPGRSLRLSCVVSGFNFRHYGMHWVRQAQGKGLEWVAGISYDGDDKYYADSVKGRFTISRDNSKSRLYLQMNSLTAEDTAVYFCAKVQHSYAYPNNYFDYWGQGTLVTVSS
# chain 2: DIQMTQSPSTLSASVGDRVTITCRASQSIGPWLAWYQQKPGKAPNLLIYKASSLESGVPSRFSGSGSGTEFTLTISSLQPDDFATYYCQQYNSYVSFGQGTKLEIK
# B11: C5212 (protein)
# chain 1: QVQLVESGGGVVQPGRSLRLSCAASGFTFSDYGMHWVRQAPGKGLEWVAVISYDGSNIRYAESVRGRFTISRDNSKNTVYLQMNSLRTEDTAVYYCAKAHFLDENWFDPWGQGALVTVSS
# chain 2: EIVMTQSPATLSVSPGERATLSCRASQSISSNLAWYQQKPGQAPRLLIYGASTGATGIPARFSGSGSGTEFTLTISSLQSEDFAVYYCQQYNNWPLTFGPGTKVDIK
# B12: C5208 (protein)
# chain 1: QVQLVQSGAEVKKPGASVKISCKASGYTFTNFYIHWVRQAPGQGLEWMAIINPSAGSTSSAQKFQGRVSMTSDTSTNTVYMELSSLRSEDTAVYYCVRDFVLIPAMNSFDIWGQGTMVTVSS
# chain 2: EIVLTQSPATLSLSPGERATLSCRASQSVGSYLAWYQQKPGQAPRLLIYGASNRATGIPARFSGSGSGTDFTLTISSLEPEDFAVYYCQHRSNWPPEITFGQGTRLEIK
# B13: C5045 (protein)
# chain 1: QVQLVQSGAEVTKPGSSVKVSCKTSGGTLSNYAFNWVRQAPGLGLEWMGDIIPLSGTTHYAQKFQGRVTITADKSTRTVYMELSSLRSEDTAVYYCARDRGISMMVARELMVVWGQGTTVTVSS
# chain 2: DIQMTQSPSTLSASVGDRVSITCRASQSINSWLAWYQQKPGKAPNLLIYDASSLESGVPSRFSGSGSGTEFTLTISSLQPDDFAIYYCQQYKDYPWTFGQGTKVEIK
# B14: C5238 (protein)
# chain 1: QVQLVQSGPEVKKPGASVKISCKTSGYIFNTYGISWVRQGPGQGLEWMGWISTSNGDTKYSQKVQGRVTMTTDTSTRTAYMELRSLRSDDTAVYYCARDLGVLWFGETDDWGQGTLVTVSS
# chain 2: DIQMTQSPSSLSASVGDRVTITCRASQGISNSLAWYQQKPGKAPKLLLYSASTLESGVPSRFSGSGSGTDFTLTISSLQPEDFATYYCQQYYTTRTFGQGTKVEIK
# B15: C5215 (protein)
# chain 1: EVQLVESGGGLVQPGESLRLSCVGSGFIFSNHWMSWVRQAPGKGLEWVATIKQDGGEKYYVDSVKGRFTISRDNAKKSVYLQMNSLRAEDTAVYYCAGRWSHFDSWGQGTLVTVSS
# chain 2: DIQMTQSPSSLSASIGDRITITCRASQGISNSLAWYQQKPGKAPNLLLYAASTLESGVPSRFSGSGSGTAYTLTISSLQPEDFATYYCQQYYSLPLGFGGGTKVEIK
# Target: SARS-CoV-2 Omicron BA.1 spike pseudovirus
# Assay: pseudovirus neutralization IC50; higher = weaker neutralization
# Experimental: (§1)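 Single-round luciferase reporter pseudovirus mixed with antibody dilutions and put on HT1080-ACE2 clone 14 cells for 48 h; signal relative to no-antibody wells, four-parameter fit.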
row,Binder,pseudovirus neutralization IC50
1,B1,> 1 µg/mL
2,B2,> 1 µg/mL
3,B3,0.00263 µg/mL
4,B4,0.757 µg/mL
5,B5,0.76 µg/mL
6,B6,0.907 µg/mL
7,B7,> 1 µg/mL
8,B8,> 1 µg/mL
9,B9,0.678 µg/mL
10,B10,> 1 µg/mL
11,B11,> 1 µg/mL
12,B12,> 1 µg/mL
13,B13,0.082 µg/mL
14,B14,0.0141 µg/mL
15,B15,> 1 µg/mL

# Target: SARS-CoV-2 Omicron BA.4/5 spike pseudovirus
# Assay: as above
# Experimental: as §1
row,Binder,pseudovirus neutralization IC50
1,B1,> 1 µg/mL
2,B2,> 1 µg/mL
3,B3,0.00184 µg/mL
4,B4,> 1 µg/mL
5,B5,> 1 µg/mL
6,B6,> 1 µg/mL
7,B7,0.811 µg/mL
8,B8,> 1 µg/mL
9,B9,0.358 µg/mL
10,B10,> 1 µg/mL
11,B11,> 1 µg/mL
12,B12,> 1 µg/mL
13,B13,> 1 µg/mL
14,B14,> 1 µg/mL
15,B15,> 1 µg/mL

# Target: SARS-CoV-2 Wuhan-Hu-1 spike pseudovirus
# Assay: as above
# Experimental: as §1
row,Binder,pseudovirus neutralization IC50
1,B1,0.00122 µg/mL
2,B2,0.719 µg/mL
3,B3,0.00119 µg/mL
4,B4,0.547 µg/mL
5,B5,0.0921 µg/mL
6,B6,> 1 µg/mL
7,B7,0.00102 µg/mL
8,B8,0.00537 µg/mL
9,B9,0.00236 µg/mL
10,B10,> 1 µg/mL
11,B11,0.0182 µg/mL
12,B12,> 1 µg/mL
13,B13,0.000918 µg/mL
14,B14,0.00313 µg/mL
15,B15,0.00111 µg/mL

# Target: SARS-CoV-2 Wuhan-Hu-1 spike receptor-binding domain
# Assay: ELISA binding EC50; higher = weaker binding; ELISA of recombinant human antibody on coated antigen, from 10 µg/ml in fourfold dilutions; four-parameter fit.
row,Binder,ELISA binding EC50
1,B1,0.0024 µg/mL
2,B2,0.00484 µg/mL
3,B3,0.00192 µg/mL
4,B4,0.00341 µg/mL
5,B5,0.00269 µg/mL
6,B6,0.00385 µg/mL
7,B7,0.00215 µg/mL
8,B8,0.00414 µg/mL
9,B9,0.00281 µg/mL
10,B10,0.0945 µg/mL
11,B11,0.0029 µg/mL
12,B12,0.0265 µg/mL
13,B13,0.00414 µg/mL
14,B14,0.00484 µg/mL
15,B15,0.00232 µg/mL

# Recombinant human monoclonal antibodies (heavy:light variable regions). ELISA EC50 on the named antigen, from 10 µg/ml down; IC50 against spike pseudovirus on HT1080-ACE2 cells, 48 h; lower = stronger. Calls: IC50 above 1,000 ng/ml = non-neutralizing; EC50 above 1,000 ng/ml = non-binder.
